# From PubChem BioAssay AID588855 (National Center for Advancing Translational Sciences (NCATS), 2011)
# Out of some 410,000 compounds screened, about 5,000 (1.2%) were called active. Inconclusive results, whose numbers are uncertain, are shown with a selection of clear calls. Calls follow the shape of the dose curve; as a rule, active = well fitted inhibition curve with a large enough effect; inconclusive = small, poorly fitted or top-dose-only effect; inactive = no such curve, though single readings can be large or run the other way. Potencies of inconclusive entries are doubtful fits and often do not repeat.
# Test: qHTS for Inhibitors of TGF-b; also: nearly all actives have a fitted effect of over 65% in size
# Conditions: HepG2 CAGA-GFP TGF-b/SMAD3 reporter, GFP fluorescence, 18 h, TGF-beta stimulated, 500 pg/mL final; series mostly up to 46.1 µM; activity, negative = inhibition: at the top concentration
# How it was run: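 Smad-responsive CAGA-GFP expression was quantified in HEPG2 cells exposed to compounds and 500 pg/mL final TGF-beta for 18 h at 37 degrees C; unstimulated wells defined full inhibition.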
# % is scaled to controls: 0 for no effect and ±100 for the full control effect; potency is read from the fitted curve at half-maximal effect; tags tell the direction and shape of the fitted curve.
SMILES,"activity, negative = inhibition",Potency
CC(C)(C)C1CCc2c(sc(NC(=O)c3cc(-c4ccc(F)cc4)on3)c2C#N)C1 (stereo not given),inactive: 16%,
CN(c1cccc(NC(=O)CN(c2cccc(Cl)c2)S(=O)(=O)c2ccc(Cl)cc2)c1)S(C)(=O)=O,,"inconclusive: 35.5 µM [inhibitor, single point]"
NNc1nc2ccc(F)cc2s1,,"inconclusive: 22.4 µM [inhibitor, single point]"
CCC(C)n1c(OC)nc2c1c(=O)n(C)c(=O)n2C (stereo not given),,"inconclusive: 4.47 µM [inhibitor, single point]"
Cc1cc2occ(CC(=O)O)c2cc1C,,"inconclusive: 6.31 µM [inhibitor, partial curve, poor fit]"
CCC(C(=O)NCCc1ccc(OC)c(OC)c1)n1nc(C)c2sc3ccccc3c2c1=O (stereo not given),,"inconclusive: 5.62 µM [inhibitor, single point]"
Cc1cc(C)n(-c2cc(C(C)(C)C)nc3c(-c4ccccc4)cnn23)n1,inactive: -28.2%,
Cc1nn(Cc2ccc(Cl)cc2)c(C)c1NC(=O)C1CC=CCC1C(=O)O (stereo not given),inactive: 1.57%,
O=C(NCc1cn(-c2ccccc2)nc1-c1ccccc1)c1cccc([N+](=O)[O-])c1,,"inconclusive: 14.1 µM [inhibitor, single point]"
Cc1c(N=C2NC(=O)C(CC(=O)Nc3ccccc3)S2)c(=O)n(-c2ccccc2)n1C (stereo not given),,"inconclusive: 3.98 µM [inhibitor, single point]"
Cc1ccc(Cl)cc1NC(=S)NCCCSC1CCCCC1,,active: 11.2 µM
COc1cc(OC)c(NC(=O)C(CC(C)C)N2Cc3ccccc3C2=O)cc1Cl (stereo not given),,"inconclusive: 35.5 µM [inhibitor, single point]"
CCOc1ccccc1NC(=O)CSc1cn(CC(=O)N2CCCCCC2)c2ccccc12,,"inconclusive: 0.794 µM [inhibitor, partial curve, poor fit]"
COc1ccc(S(=O)(=O)N(C)c2ccc(C(=O)Nc3cccnc3)cc2)cc1OC,inactive: -0.847%,
COc1ccc(CNC(=O)c2sc(=O)n(Cc3ccc(S(=O)(=O)N(C)C)cc3)c2C)cc1,,"inconclusive: 12.6 µM [inhibitor, partial curve, poor fit]"
CSC1=NC(C(Cl)(Cl)Cl)N=C(c2ccc(C)cc2)N1 (stereo not given),,"inconclusive: 4.47 µM [inhibitor, partial curve, poor fit]"
CC(C)(C)CC(C)(C)NCC(=O)Nc1c2c(nc3ccccc13)CCC2,,"inconclusive: 22.4 µM [inhibitor, single point]"
CCCNCCC(c1ccco1)c1ccccc1OC (stereo not given),,"inconclusive: 5.01 µM [inhibitor, single point]"
Cc1cc(C)c2c(NC(=S)Nc3ccccc3)n[nH]c2n1,,"inconclusive: 35.5 µM [inhibitor, single point]"
CCN(CC)S(=O)(=O)c1ccc2c(c1)N(CC(=O)Nc1cccc(C)c1C)C(=O)C1CCCN21 (stereo not given),,"inconclusive: 22.4 µM [inhibitor, single point]"
CCCNC(=O)c1nnsc1S(=O)(=O)c1ccc(Cl)cc1,,"inconclusive: 17.8 µM [inhibitor, single point]"
COc1ccc(Nc2nc(N)c([N+](=O)[O-])c(NCCO)n2)cc1,,"inconclusive: 22.4 µM [inhibitor, single point]"

SMILES,"activity, negative = inhibition",Potency
O=C(COC(=O)CCN1C(=O)C2CC=CCC2C1=O)NCCc1ccccc1 (stereo not given),,"inconclusive: 1.26 µM [inhibitor, full curve]"
O=C(Nc1nnc(CCN2CCCCC2)s1)C1CCCCC1,,"inconclusive: 10 µM [inhibitor, partial curve, poor fit]"
CCCCCCCCCCCCCCCC[n+]1ccc(C)c2ccccc21,,active: 7.08 µM
Cc1noc(C)c1S(=O)(=O)N(CC(=O)Nc1ccc(C(F)(F)F)cc1)c1ccc(C(C)C)cc1,,"inconclusive: 3.98 µM [inhibitor, full curve]"
COC(=O)c1cccc(NC(=S)N2CCN(c3ccccc3F)CC2)c1,,"inconclusive: 0.112 µM [inhibitor, full curve, poor fit]"
O=C(O)C1OC(Oc2cc3oc(-c4ccccc4)cc(=O)c3c(O)c2O)C(O)C(O)C1O (stereo not given),inactive: -12.4%,
C[C@@H]1CN([C@@H](C)CO)C(=O)c2cc(Br)cnc2O[C@H]1CN(C)Cc1ccc(-c2ccccc2)cc1,,"inconclusive: 31.6 µM [inhibitor, single point]"
Cc1c(C(=O)Nc2cccc(C(F)(F)F)c2)sc2nc3n(c(=O)c12)CCC3,,"inconclusive: 22.4 µM [inhibitor, single point]"
COCCn1c(Cc2ccccc2)nnc1SCC(=O)NC1CCCCC1,,"inconclusive: 22.4 µM [inhibitor, single point]"
CCOC(=O)C1(Cc2ccccc2)CCCN(CCCn2cccn2)C1 (stereo not given),,"inconclusive: 5.62 µM [inhibitor, single point]"
O=C(Nc1ccc(O)c2c(=O)cc(-c3cccc(Cl)c3)oc12)c1cccc(Cl)c1,,"inconclusive: 5.62 µM [inhibitor, single point]"
Cc1ccc(S(=O)(=O)N2CCCCC2CCNC(=O)C(=O)NCC2CCCO2)cc1 (stereo not given),inactive: 1.92%,
CCCN(CCC)CCNC(=O)c1cc2c(=O)oc3ccc(C)cc3c2s1,,"inconclusive: 14.1 µM [inhibitor, partial curve, poor fit]"
NC(CCc1ccccc1)c1csc(Nc2ccc(C(=O)NCCO)cc2)n1 (stereo not given),inactive: -4.68%,
COc1ccc(S(=O)(=O)N2CC(C(=O)O)Oc3ccc(Cl)cc32)cc1 (stereo not given),inactive: 0%,
Cc1cccc(N2CCN(C(=O)c3cc4ccc5cccnc5c4[nH]3)CC2)c1C,,"inconclusive: 12.6 µM [inhibitor, partial curve, poor fit]"
CCCOc1ccc(NC(=O)CC2C(=O)N(CC)C(=S)N2Cc2cccs2)cc1 (stereo not given),,"inconclusive: 11.2 µM [inhibitor, partial curve, poor fit]"
CCOC(=O)N1CCN(CC(O)COCc2cc(OC)c(OC)c(OC)c2)CC1 (stereo not given),,"inconclusive: 22.4 µM [inhibitor, single point]"
CCc1ccccc1NC(=O)N1CCN(Cc2nc3ccc(C)cc3o2)CC1,,"inconclusive: 6.31 µM [inhibitor, partial curve, poor fit]"
O=C1CCC[C@@H]2C[C@@]3(C[C@@H]4CCN1[C@H]24)Nc1cc(Cl)ccc1NC3=NCc1ccccc1,,"inconclusive: 31.6 µM [inhibitor, single point]"
COc1ccc(-c2nc(N)nc(N)n2)c(O)c1,inactive: -3.11%,
CN1CCN(C(c2ccc(Cl)cc2)c2cc(Cl)c3cccnc3c2O)CC1 (stereo not given),,"inconclusive: 11.2 µM [inhibitor, partial curve, poor fit]"

SMILES,"activity, negative = inhibition",Potency
O=C(C1=C[C@H](c2ccc(C(F)(F)F)cc2)C[C@H](OCCCCO)O1)N1CCN(Cc2ccc3c(c2)OCO3)CC1,,"inconclusive: 12.6 µM [inhibitor, single point]"
CCN(CCCNC(=O)CCc1nc(-c2ccc(C)cc2)no1)c1cccc(C)c1,,"inconclusive: 12.6 µM [inhibitor, single point]"
COc1ccc(C)cc1NC(C)C(=O)c1c[nH]c2ccccc12 (stereo not given),inactive: -0.111%,
Cc1ccccc1NC(=O)CSc1nccn1C,inactive: -5.46%,
Cc1nnc(N2CCC(C(=O)NC3CCC(C)CC3)CC2)c2nn(-c3ccc(Cl)cc3)c(C)c12 (stereo not given),,"inconclusive: 6.31 µM [inhibitor, partial curve, poor fit]"
COc1ccc(OCCCCOc2ccccc2Cl)cc1,inactive: 6%,
CCCCCn1c(CCCNC(=O)c2ccccc2)nc2ccccc21,,"inconclusive: 25.1 µM [inhibitor, single point]"
CN1/C(=C\C(=O)COC(=O)c2ccc([N+](=O)[O-])o2)C(C)(C)c2ccccc21,,"inconclusive: 12.6 µM [inhibitor, single point]"
CC(C)OCCCNC(=O)c1cccc2c1C(=O)c1ccc(Cl)cc1S2(=O)=O,inactive: -32.3%,
O=C(N/N=C/c1cccs1)c1cc(-c2ccc(Cl)s2)[nH]n1,,"inconclusive: 35.5 µM [inhibitor, single point]"
CCCC(=O)N1c2nc(-c3ccco3)nn2C2(CCCCC2)[C@@H]2CCCC[C@@H]21,,"inconclusive: 3.98 µM [inhibitor, partial curve, poor fit]"
NC(=S)N/N=C/c1ccc(OC(=O)c2cccnc2)cc1,inactive: 7.95%,
CCCCCOc1ccc(C(=O)OC(C)C(=O)NCc2ccco2)cc1 (stereo not given),inactive: -7.03%,
O=C(COc1cccc(C(F)(F)F)c1)NNC(=O)c1ccc(=O)[nH]c1,inactive: -2.12%,
CCC(C)n1c(SCC(=O)Nc2cc(C(C)(C)C)nn2-c2ccccc2)nc2ccccc2c1=O (stereo not given),,"inconclusive: 35.5 µM [inhibitor, single point]"
CC(C)Oc1ccc(C(=O)NCCc2csc(-c3cccc(F)c3)n2)cc1,,"inconclusive: 35.5 µM [inhibitor, single point]"
Cc1ccccc1NC(=O)c1c(C)oc2ccc(O)c(CN(C)Cc3ccccc3)c12,,"inconclusive: 11.2 µM [inhibitor, partial curve, poor fit]"
Cc1ccc(-c2noc(-c3ccccc3OCC(=O)Nc3ccccc3[N+](=O)[O-])n2)cc1,inactive: -20.6%,
Cc1ccc(S(=O)(=O)N2CCN(CC(=O)NC3CCCc4ccccc43)CC2)cc1C (stereo not given),,"inconclusive: 1.78 µM [inhibitor, partial curve, poor fit]"
Cc1ccc(S(=O)(=O)CCC(=O)c2ccc(F)cc2)cc1,,"inconclusive: 25.1 µM [inhibitor, single point]"
COc1ccc(C2CC(=O)c3cnc(NC(=O)c4ccccc4)nc3C2)c(OC)c1 (stereo not given),,"inconclusive: 20 µM [inhibitor, single point]"
